Test results taken from US10696710B2, “Pharmaceutical targeting of a mammalian cyclic di-nucleotide signaling pathway” (Board of Regents, The University of Texas System, priority 2012, dated 2020).

Tests used:
STING = STING (Homo sapiens, UniProt Q86WV6); assay: UV-induced crosslinking of 32P-cGAMP to recombinant STING (residues 139-379) with cold competitors; details: increasing or high concentrations of cold competitor
human STING = molecular target: T1, human STING (Homo sapiens, UniProt Q86WV6, H232R); assay: Isothermal titration calorimetry of STING C-terminal domain (residues 139-379) binding to cyclic di-nucleotides
T1 construct: A C-terminal domain (CTD) encompassing residues 139-379 of human STING; made in house; host or cells: E. coli
T1 sequence (Q86WV6 139-379 H232R): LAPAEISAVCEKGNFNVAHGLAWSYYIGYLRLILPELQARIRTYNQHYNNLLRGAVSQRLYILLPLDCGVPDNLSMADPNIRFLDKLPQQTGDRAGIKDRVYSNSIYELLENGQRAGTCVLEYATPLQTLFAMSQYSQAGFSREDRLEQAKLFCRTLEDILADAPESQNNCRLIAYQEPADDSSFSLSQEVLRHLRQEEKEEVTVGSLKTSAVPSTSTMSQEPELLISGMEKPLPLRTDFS

IRF3 = IRF3 activation / dimerization by cyclic di-nucleotides; details: for IRF3 dimerization: L929 versus L929-shSTING cells
L929 cells = assay: IFNβ induction in L929 cells after delivery of cyclic di-nucleotides (q-RT-PCR, ELISA); type: cell-based, mouse
Source text: We also established two L929 cell lines stably expressing shRNA sequences targeting distinct regions of m-cGAS. The ability of these cells to induce IFNβ in response to HT-DNA was severely compromised as compared to another cell line expressing a control shRNA (GFP). Importantly, expression of cGAS in the L929-sh-cGAS cells restored IFNβ induction. […] . Quantitative RT-PCR analyses confirmed the specificity and efficiency of knocking down cGAS and STING in the L929 cell lines stably expressing the corresponding shRNAs.
. The reason for this is not clear, but it is possible that different compounds have different stability or distribution in the cells.

HIV [1] = type: cell-based, human
HIV [2] = type: cell-based, human; details: THP1 cells
lung fibroblasts = assay: IFNβ induction in mouse lung fibroblasts after delivery of cGAMP into the cytoplasm; type: cell-based
THP1 cells [3] = assay: IFNβ induction in cGAS shRNA knockdown THP1 cells after cGAMP delivery; details: THP1 cells with cGAS shRNA
THP1 cells [4] = assay: IFNβ induction by HT-DNA (specificity control for reverse transcriptase inhibitors); type: cell-based, human; details: even at high concentrations
Source text: To test if reverse transcription is required for HIV to activate the innate immune response, we treated THP1 cells with the HIV reverse transcriptase inhibitors, azidothymidine (AZT) and nevirapine (NVP).

Chain of STING (Q86WV6 139-379 H232R): as above

## Nc1nc2c(ncn2[C@@H]2O[C@H](COP(=O)(O)OP(=O)(O)OP(=O)(O)O)[C@@H](O)[C@H]2O)c(=O)[nH]1 [GTP]
STING
  competition with formation of the crosslinked STING-32P-cGAMP complex (band intensity): did not compete

## Nc1nc2c(ncn2[C@@H]2O[C@@H]3COP(=O)(O)O[C@H]4[C@@H](O)[C@H](n5cnc6c(=O)[nH]c(N)nc65)O[C@@H]4COP(=O)(O)O[C@H]3[C@H]2O)c(=O)[nH]1 [c-di-GMP, cyclic-di-GMP]
Human STING; ITC direct binding
  heat change of binding to STING: exothermic
IRF3
  IRF3 dimerization: dependent on STING
STING
  competition with formation of the crosslinked STING-32P-cGAMP complex (band intensity): decreased
L929 cells; L929 cells, q-RT-PCR, read-out: EC50 of IFNβ induction
  EC50: > 500 nM

## Cc1nnc(C(=O)NC(C)(C)c2nc(C(=O)NCc3ccc(F)cc3)c(O)c(=O)n2C)o1 [RAL, raltegravir]
HIV [1]
  effect on generation of the cGAMP activity: had no effect
HIV [2]
  effect on IFNβ induction by HIV: did not affect
  effect on IRF3 activation by HIV: did not affect

## cyclic-GMP-AMP [cGAMP]
Lung fibroblasts; Sting gt/gt lung fibroblasts
  IFNβ induction: not
Lung fibroblasts; cGas−/− lung fibroblasts
  IFNβ induction: rescued IFNβ induction
IRF3
  potency in activating IRF3: more potent than c-di-GMP and c-di-AMP
  IRF3 dimerization: dependent on STING
THP1 cells [3]
  IFNβ induction: rescued
L929 cells; L929-sh-cGAS cells
  IFNβ induction: induced IFNβ
L929 cells; L929-shSTING cells
  IFNβ induction: failed to induce IFNβ
L929 cells; L929 cells, ELISA
  potency in inducing IFNβ: much more potent than c-di-GMP
L929 cells; L929 cells, titration, chemically synthesized cGAMP
  concentration at which IFNβ RNA is still robustly induced: ≤ 10 nM

## Nc1nc2c(ncn2[C@@H]2O[C@@H]3COP(=O)(O)O[C@@H]4[C@H](O)[C@@H](COP(=O)(O)O[C@@H]2[C@@H]3O)O[C@H]4n2cnc3c(N)ncnc32)c(=O)[nH]1 [2′2′-cGAMP]
Human STING; ITC, titrated directly to STING CTD
  Kd: 287 nM

## Cc1ccnc2c1NC(=O)c1cccnc1N2C1CC1 [NVP, nevirapine]
HIV [1]
  effect on generation of the cGAMP activity: blocked
THP1 cells [4]
  effect on IFNβ induction by HT-DNA: did not inhibit
HIV [2]
  effect on IFNβ induction by HIV: blocked
  effect on IRF3 activation by HIV: blocked

## Nc1nc2c(ncn2[C@@H]2O[C@@H]3COP(=O)(O)O[C@H]4[C@@H](O)[C@H](n5cnc6c(N)ncnc65)O[C@@H]4COP(=O)(O)O[C@@H]2[C@@H]3O)c(=O)[nH]1 [2′3′-cGAMP]
L929 cells; Mus musculus, L929, read-out: EC50 of IFNβ induction
  EC50: ~20 nM

## O=c1[nH]cnc2c1ncn2[C@H]1CC[C@@H](CO)O1 [DDI, didanosine]
HIV [1]
  effect on generation of the cGAMP activity: blocked

## Nc1ncnc2c1ncn2[C@@H]1O[C@H](COP(=O)(O)OP(=O)(O)OP(=O)(O)O)[C@@H](O)[C@H]1O [ATP]
STING
  competition with formation of the crosslinked STING-32P-cGAMP complex (band intensity): did not compete

## Nc1ncnc2c1ncn2[C@@H]1O[C@@H]2COP(=O)(O)O[C@H]3[C@@H](O)[C@H](n4cnc5c(N)ncnc54)O[C@@H]3COP(=O)(O)O[C@H]2[C@H]1O [c-di-AMP, cyclic-di-AMP]
STING
  competition with formation of the crosslinked STING-32P-cGAMP complex (band intensity): decreased

Where two headings read alike, the source gives them in different places.
